One test has as its system E. faecalis. Description: Agar well diffusion, inhibition zone. The test is classed as cell-based. Particulars: Enterococcus faecalis, read-out: Mean diameter of inhibition zone (mean ± SEM) E. faecalis.
The target of the next test is BRAF^V600E (Homo sapiens, UniProt P15056, V600E). Description: BRAFV600E kinase inhibitory assay (Reaction Biology HotSpot, 33P-ATP, MEK1 substrate).
For test [1], the system named is MCF-7 cells. The experiment in a line: In vitro cytotoxicity, MTT assay, MCF-7. The following applies: Homo sapiens, MCF7, read-out: IC50 MCF-7.
For the next test, the system named is WI-38 cells. The experiment in a line: Cytotoxicity against normal fibroblasts WI-38 (safety). Particulars: Homo sapiens, WI-38, read-out: IC50 WI-38.
Another test relates to HepG-2 cells. Description: In vitro cytotoxicity, MTT assay, HepG-2. Particulars: Homo sapiens, HepG2, read-out: IC50 HepG-2.
Test [2] deals with MCF-7 cells. The experiment in a line: Annexin V-FITC/PI apoptosis assay. Type of test: cell-based, human. Particulars: MCF-7, 24 h, at IC50 (4.021 μM for 1, 8.35 μM for 3c). The procedure: More details in the ESI. ^†
The apoptotic mode of cell death induced by compounds 1 and 3c was further determined to find out whether the cell death was due to apoptosis or necrosis. This assay was carried out using annexin V/PI assay. Annexin V conjugated with FITC was utilized to stain cells in combination with PI.[63] The cells which stained positive for annexin V/PI indicated the cells in the late apoptotic stage which have lost the integrity of their membranes.[63] […] Then staining of MCF-7 cells was carried out using two dyes; annexin V/propidium iodide (PI). Flow cytometry technique has detected the corresponding red (PI) and green (FITC) fluorescence. […] It was observable that the late apoptosis percentage caused by compounds 1, 3c was higher than that of the early phase making it more challenging to recover the apoptotic cells to the safe ones. The obtained results investigated that apoptosis was one of the main mechanisms of compounds 1, 3c to inhibits cancer cell proliferation (Fig. 5).
screening of final compounds.
using 1 μM concentration of ATP.
1.2.4. Annexin V-FITC apoptosis assay
Briefly, cells were seeded
Data was collected from three individual

In a further test the test system is S. aureus 25923. The experiment in a line: Agar well diffusion, inhibition zone. Particulars: Staphylococcus aureus, 25923, read-out: Mean diameter of inhibition zone (mean ± SEM) S. aureus 25923. Type of test: cell-based.
A further test concerns the target EGFR (Homo sapiens, UniProt P00533). Description: EGFR kinase inhibitory assay (Kinase-Glo Max luminescence). (In general: In Kinase-Glo more light means more ATP remaining.)

The results in this text go back to paper PMC8694192, “Synthesis and biological evaluation of new derivatives of thieno-thiazole and dihydrothiazolo-thiazole scaffolds integrated with a pyrazoline nucleus as anticancer and multi-targeting kinase inhibitors” (RSC Advances, 2021).

What is called zone of inhibition is the extent of the growth-free halo in a diffusion test. As usually defined, the IC50 is the concentration that gives 50% inhibition. For `Cc1c(NC2=NC(=O)CS2)c(=O)n(-c2ccccc2)n1C` [Compound 1, 2-((1,5-Dimethyl-3-oxo-2-phenyl-2,3-dihydro-1H-pyrazol-4-yl)amino)thiazol-4(5H)-one], the zone of inhibition at 500 µg/mL with E. faecalis came to 28 ± 0.92 mm; in the test on S. aureus 25923 it was 31 ± 0.17 mm. Further, the IC50 against BRAF^V600E turned out to be 2.03 ± 0.5 µM; with MCF-7 cells [1], 4.02 ± 0.02 µM; in the test with WI-38 cells, 60.4 µM; with HepG-2 cells, 4.52 ± 0.04 µM. Also, in the test on MCF-7 cells [2], the necrotic percent is given as 9.55%.
For the molecule `Cc1c(Nc2nc3c(C(=O)NN)c(N)sc3s2)c(=O)n(-c2ccccc2)n1C` [Compound 3c, 5-Amino-2-((1,5-dimethyl-3-oxo-2-phenyl-2,3-dihydro-1H-pyrazol-4-yl)amino) thieno[3,2-d]thiazole-6-carbohydrazide], the IC50 against BRAF^V600E amounted to 0.088 ± 0.01 µM; against EGFR, 0.017 ± 0.05 µM; with MCF-7 cells [1], 8.35 ± 0.03 µM; in the test with WI-38 cells it was 54.7 µM; with HepG-2 cells, 7.88 ± 0.01 µM. Besides, the early apoptosis in the test on MCF-7 cells [2] stood at 1.92%. Further, the late apoptosis in the test with MCF-7 cells [2] is reported as 9.28%. Further, the necrotic percent in the test on MCF-7 cells [2] stood at 8.42%.
